# Experimental data from paper PMC12136788.
# This is one part of the list.
# T1: UNK ZnF1-3 (human, UniProt Q9C0B0 31-174)
# T1 sequence: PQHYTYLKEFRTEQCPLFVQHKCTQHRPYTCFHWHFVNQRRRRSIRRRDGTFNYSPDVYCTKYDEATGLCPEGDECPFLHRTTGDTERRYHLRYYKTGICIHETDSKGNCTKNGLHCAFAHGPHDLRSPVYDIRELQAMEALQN
# B1: 131122594_131122714_1111_CDS_ENSG00000128585_ENST00000352689|human|control|control (ssRNA)
# RNA: GGGAGUUCUACAGUCCGACGAUCAUCCUCACUUAGUAACAUCCAUGUGUUUGUAUCAAUGUCAUAACGAUAGAAGUCACUUUUCAGAGAUUUGCUGUUCCUCACAGAGGAAUCCAAGUAACGCCCCAAUGUGUAGAUUUGCCUCAACAGAGGAUUGAGCAUCA
# B2: chr9:21819513:21819514:-_ENSMUSG00000003410_ENSMUST00000003501|mus_hu|FALSE|FALSE (ssRNA)
# RNA: GGGAGUUCUACAGUCCGACGAUCCUGAACUUUUAUUUUCUGGCAUGAAAAGUACAAAUAAUUAAACAAUUCCAUGUAAAAGUCUGUUACCGCGGCCAGGCCUGUGAUCCCGGUAAUAAAUAGUCUAAACGCAACGCGAAGUGUCAACAGAGGAUUGAGCAUCA
# B3: chr1:235506033:235506034:+_ENSG00000152904_ENST00000391855|hu_mus|motif|central (ssRNA)
# RNA: GGGAGUUCUACAGUCCGACGAUCAUAGUAUUAUUUAUUUUCUUCUGUGAACAUCUUACUUAAGUGCUUGACUAAAGCCACGGGUGAAGGGUUCCCACCACAGGCCUCAAUUUGUUUGUAGGCUUUAGCUUCAAGCUCUCUAAGCAACAGAGGAUUGAGCAUCA
# B4: chr12:70905630:70905631:-_ENSMUSG00000034761_ENSMUST00000110570|mus_hu|FALSE|FALSE (ssRNA)
# RNA: GGGAGUUCUACAGUCCGACGAUCAUUCUGUAUGAAACUGUAUUAUAAAAUACUUUUGUUAAGCAAAAUUGCAUGUGUGUGUUGAACCCCCAAACACUCAAAGUACUUUACUACUCUUAAAAGAUAAACAAAAUUCUUAUACAUCAACAGAGGAUUGAGCAUCA
# B5: chrX:20248510:20248511:+_ENSMUSG00000001924_ENSMUST00000001989|perfect_dup|FALSE|FALSE (ssRNA)
# RNA: GGGAGUUCUACAGUCCGACGAUCGACCUGACUGACGAUGCCUCCACGGAUGUAGUCAGAGAAGUUGGAAGUGUCACAGAUACUAAAGGUAUAAGGACCCAGCACUUUGAUCUCCAUGGGCUGACAUCCAUUGAGUUGGAUCAUCAACAGAGGAUUGAGCAUCA
# B6: chr1:88248876:88248877:-_ENSMUSG00000026234_ENSMUST00000027438|perfect_dup|FALSE|FALSE (ssRNA)
# RNA: GGGAGUUCUACAGUCCGACGAUCUUCCAUUUUAUUACAGGAAUUUAAAGCUUCUUUAGCAUCUUCAAAUGAAGCAAAUUCUAUAAAUGCAUACCCUUUAGGUUUGCCAUGUGGGUUCUGGGGCACUUUGAUAAAAGUUGCUUUCAACAGAGGAUUGAGCAUCA
# B7: chrX:20248820:20248821:+_ENSMUSG00000001924_ENSMUST00000001989|mus_mus|mus_mus_mus_hu_True|48_78 (ssRNA)
# RNA: GGGAGUUCUACAGUCCGACGAUCGGCGAAGUCCGUCACCACAAAGUCAGGUUCUGCCAGUGAUGCUACCAAGGAUUUAAAGCUAAUCUUUUUCGGUACUUUGACCUGACUGACGAUGCCUCCACGGAUGUAGUCGGAGAAGUUCAACAGAGGAUUGAGCAUCA
# B8: chr1:66486420:66486421:+_ENSMUSG00000015222_ENSMUST00000077355|mus_mus|FALSE|FALSE (ssRNA)
# RNA: GGGAGUUCUACAGUCCGACGAUCUUAAAAUUUAUUUUUAAAUAGGGAGAGAACCCUGCUAACAUCUACUUUCACAUACCUAAAAUUGCAACACCAAAGGGUGCAGGAGACACAGAUACUGUGAAUAAAGAAGUAUCAUAUUCACAACAGAGGAUUGAGCAUCA
# B9: chr3:110853029:110853030:+_ENSG00000177707_ENST00000485303|hu_mus|FALSE|FALSE (ssRNA)
# RNA: GGGAGUUCUACAGUCCGACGAUCUGGCUGUUAGACAUACCACUCCCUCCUGGAAAUUACGGAGCCAUCUACAUGAGAAACCAAACCAUCUUCACUUUCAUUGUAGCGUUCAUCACUGACAAACUUCAUUCCCAUUUUUAGAUCCAACAGAGGAUUGAGCAUCA
# B10: 135224773_135229106_165_5pUTR_ENSG00000107290_ENST00000224140|human|control|control (ssRNA)
# RNA: GGGAGUUCUACAGUCCGACGAUCGGUGGAAGCACCACCUGGCGUACACCAACAACAUGUGCUCAUUCUGUACCUGGACAAAUGGCCUACAGAAAAGUGAUCGUCUCAGCUGGGCUUAGUUGUGAACAAACACGGAUUUGCAUUCAACAGAGGAUUGAGCAUCA
# B11: chr3:88516089:88516090:+_ENSMUSG00000028060_ENSMUST00000029696|mus_hu|motif|central (ssRNA)
# RNA: GGGAGUUCUACAGUCCGACGAUCAUUGACCAAACAGUAGUAAAAUACAAAUAAAACUUUCUUUAUGUCAGAACUGGGGCGGUUCACCUGGAAAAGGCUGACCAGGUCAAAUGUGUAUGGGAACGACCCUGUUAGGAUGCUUUGCAACAGAGGAUUGAGCAUCA
# B12: chr3:100103413:100103414:-_ENSG00000154174_ENST00000284320|hu_mus|motif|central (ssRNA)
# RNA: GGGAGUUCUACAGUCCGACGAUCAAGAAGUUUAAGAACUUUAUCAGCUAACAGCAUGCUCUGCUCAUUUUGAAACCCUUCGGAUAUACACACAGCAGUGACGUCUUCUAAACACUCCUUCUUAUUGUCUAGCUUCUCAUGGGCCAACAGAGGAUUGAGCAUCA
# B13: chr3:139078181:139078182:-_ENSG00000184432_ENST00000507777|hu_hu|motif|central (ssRNA)
# RNA: GGGAGUUCUACAGUCCGACGAUCCUGACUGGGUAAGUAAGUUCGGGCCAAGAAGGCAGCUUCUGGCAGCCGUCCAGUUCGGAUUAAGAGCUCUAGGCAGGCAUCAACCUUGCCCUGUAAAAAGUAGCUCAUGAAUGCCACAUUCAACAGAGGAUUGAGCAUCA
# B14: chr17:66333223:66333224:-_ENSMUSG00000034647_ENSMUST00000038116|mus_hu|motif|central (ssRNA)
# RNA: GGGAGUUCUACAGUCCGACGAUCAACAUCUCCUAGGACAAAAGUAUUUUCUGUAUCUUUUGUAGAUUCAUUAUCAGUAUCGGAAGCAGAACUAAUAAUCUGAACUGCAUUUUUUUGUUGUAAAAUACCUGGCUCUUGAUUAGCCAACAGAGGAUUGAGCAUCA
# Target: T1, UNK ZnF1-3
# Assay: nsRBNS (natural sequence RNA bind-n-seq); RBNS binding buffer (assumed for nsRBNS): 25 mM Tris pH 7.5, 150 mM KCl, 3 mM MgCl2, 0.01% Triton X-100, 500 ug/ml BSA, 20 U/ml SUPERase-In, 4 C; UNK is unkempt and MSI1 is Musashi-1; names of the RNAs are library labels; protein concentration not given here; high values mean tight binding
row,Binder,binding signal [enrichment R]
1,B1,0.873
2,B2,0.856
3,B3,0.959
4,B4,0.696
5,B5,0.463
6,B6,0.792
7,B7,0.818
8,B8,1.77
9,B9,0.852
10,B10,1.17
11,B11,1.29
12,B12,0.877
13,B13,1.11
14,B14,1.14
